Consider 1 molecule from patent US20260028391A1.

For this test, the target named is fusion glycoprotein of the RSV used in the neutralization assay of Example 1 (respiratory syncytial virus (strain not stated)). Description: cell-based or functional assay.

B1: MPK202 (antibody, V domains shown)
VH: EVQLVQSGAEVKKTGASVKVSCKVFGDTLTELSMHWVRQAPGKGLEWMGGFHREEGETIYAQKFQGRVTMTEDTSSDTAYMELSSLRSDDTAMYYCATLVDIVVTTAGAGANHYWGQGTMVTVSS
VL: [about 100 residues not shown]FTFGGGTKVEIK
On to B1, for which the RSV Neutralization - IC50 was 0.5 ng/mL.
